The entries are a selection whose mix differs from that of the whole data set. For some assays here: At the low end of the ranking the order means little. The list shows a part of the results. For some assays here: The source does not settle which construct or isoform was used.
Assays:
Experiment in all cases: universal protein binding microarray (PBM)
Settings in all cases: transcription factors of Arabidopsis thaliana; high values mean tight binding; most listed sequences are background and not binding sites; double strand, one strand shown
GST-ANAC092(1-176) = target: T1, GST-ANAC092(1-176) (UniProt Q9FKA0)
T1 sequence: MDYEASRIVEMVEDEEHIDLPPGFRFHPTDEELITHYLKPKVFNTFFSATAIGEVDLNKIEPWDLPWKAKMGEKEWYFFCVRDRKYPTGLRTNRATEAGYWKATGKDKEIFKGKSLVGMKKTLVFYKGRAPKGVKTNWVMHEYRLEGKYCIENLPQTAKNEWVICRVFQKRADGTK

GST-NTL6(1-168) = GST-NTL6(1-168) (UniProt Q9SCK6)
Chain of UniProt Q9SCK6 (Q9SCK6 1-168): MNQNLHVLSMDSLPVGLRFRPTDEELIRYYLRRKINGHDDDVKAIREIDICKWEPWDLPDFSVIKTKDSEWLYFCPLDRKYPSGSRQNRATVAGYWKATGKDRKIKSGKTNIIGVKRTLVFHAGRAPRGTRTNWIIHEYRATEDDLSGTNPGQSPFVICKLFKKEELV

GST-ANAC019 NAC domain = target: T2, GST-ANAC019 NAC domain (UniProt Q9C932)
T2 sequence: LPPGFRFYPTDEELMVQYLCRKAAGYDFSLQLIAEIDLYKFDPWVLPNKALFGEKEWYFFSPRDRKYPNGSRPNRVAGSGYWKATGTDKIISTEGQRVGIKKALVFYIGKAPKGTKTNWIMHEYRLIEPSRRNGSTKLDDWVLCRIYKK

GST-ANAC055(1-171) = target: T3, GST-ANAC055(1-171) (UniProt Q9LDY8)
T3 sequence: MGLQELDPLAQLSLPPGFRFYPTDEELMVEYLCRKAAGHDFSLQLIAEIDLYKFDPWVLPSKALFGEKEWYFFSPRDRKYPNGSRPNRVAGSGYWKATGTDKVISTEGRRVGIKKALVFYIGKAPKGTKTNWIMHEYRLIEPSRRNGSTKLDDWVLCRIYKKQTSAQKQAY

GST-ATAF1 NAC domain = target: T4, GST-ATAF1 NAC domain (UniProt Q39013)
T4 sequence: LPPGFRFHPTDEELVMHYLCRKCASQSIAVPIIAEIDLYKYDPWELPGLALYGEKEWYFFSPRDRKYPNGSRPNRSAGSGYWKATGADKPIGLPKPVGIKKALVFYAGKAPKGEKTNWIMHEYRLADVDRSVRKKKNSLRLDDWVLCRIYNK

[1] = target: T5, GST-ANAC092(1-285) full length (UniProt Q9FKA0)
T5 sequence: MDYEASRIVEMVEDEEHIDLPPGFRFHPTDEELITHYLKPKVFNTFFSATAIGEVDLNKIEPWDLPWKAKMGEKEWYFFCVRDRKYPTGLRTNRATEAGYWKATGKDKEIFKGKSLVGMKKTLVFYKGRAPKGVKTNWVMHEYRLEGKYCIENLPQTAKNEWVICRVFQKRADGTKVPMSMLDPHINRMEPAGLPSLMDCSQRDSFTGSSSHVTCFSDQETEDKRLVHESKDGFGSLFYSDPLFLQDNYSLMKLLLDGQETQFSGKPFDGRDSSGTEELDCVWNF

GST-NAP(1-166) = target: T6, GST-NAP(1-166) (UniProt O49255)
T6 sequence: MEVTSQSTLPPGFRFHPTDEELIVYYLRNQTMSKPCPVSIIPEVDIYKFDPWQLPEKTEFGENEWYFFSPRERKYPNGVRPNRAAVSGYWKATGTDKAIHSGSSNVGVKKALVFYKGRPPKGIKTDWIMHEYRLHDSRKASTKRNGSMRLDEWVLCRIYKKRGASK

GST-NST2(1-184) = target: T7, GST-NST2(1-184) (UniProt Q9M274)
T7 sequence: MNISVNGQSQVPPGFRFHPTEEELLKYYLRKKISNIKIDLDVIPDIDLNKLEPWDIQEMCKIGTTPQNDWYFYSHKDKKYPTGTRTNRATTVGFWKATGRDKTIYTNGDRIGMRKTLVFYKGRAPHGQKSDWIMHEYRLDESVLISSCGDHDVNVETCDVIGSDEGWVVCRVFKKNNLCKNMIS

GST-NTL8 NAC domain = target: T8, GST-NTL8 NAC domain (UniProt Q9XIN7)
T8 sequence: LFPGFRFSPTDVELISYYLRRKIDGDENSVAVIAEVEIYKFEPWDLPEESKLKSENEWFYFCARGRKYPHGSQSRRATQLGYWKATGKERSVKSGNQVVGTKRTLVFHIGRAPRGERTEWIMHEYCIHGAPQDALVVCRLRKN

GST-SND1(1-203) = target: T9, GST-SND1(1-203) (UniProt Q9LPI7)
T9 sequence: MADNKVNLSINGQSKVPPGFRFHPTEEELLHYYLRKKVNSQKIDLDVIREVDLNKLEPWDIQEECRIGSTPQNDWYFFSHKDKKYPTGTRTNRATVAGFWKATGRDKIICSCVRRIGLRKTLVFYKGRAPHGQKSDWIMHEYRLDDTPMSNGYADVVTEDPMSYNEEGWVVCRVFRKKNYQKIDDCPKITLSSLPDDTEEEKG

GST-VND3 NAC domain = target: T10, GST-VND3 NAC domain (UniProt Q9FH59)
T10 sequence: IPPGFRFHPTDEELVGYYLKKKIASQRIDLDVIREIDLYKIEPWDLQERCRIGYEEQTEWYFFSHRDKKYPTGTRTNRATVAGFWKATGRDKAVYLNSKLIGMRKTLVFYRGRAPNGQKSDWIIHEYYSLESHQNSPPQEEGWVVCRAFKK

GST-VND7 NAC domain = target: T11, GST-VND7 NAC domain (UniProt Q9C8W9)
T11 sequence: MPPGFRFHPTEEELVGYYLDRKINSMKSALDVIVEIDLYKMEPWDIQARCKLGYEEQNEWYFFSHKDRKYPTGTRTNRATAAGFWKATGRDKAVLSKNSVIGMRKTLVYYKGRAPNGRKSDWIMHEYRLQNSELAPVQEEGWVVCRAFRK

[2] = target: T12, GST-VOZ2 (Arabidopsis thaliana) (UniProt Q9SLB9)
T12 sequence: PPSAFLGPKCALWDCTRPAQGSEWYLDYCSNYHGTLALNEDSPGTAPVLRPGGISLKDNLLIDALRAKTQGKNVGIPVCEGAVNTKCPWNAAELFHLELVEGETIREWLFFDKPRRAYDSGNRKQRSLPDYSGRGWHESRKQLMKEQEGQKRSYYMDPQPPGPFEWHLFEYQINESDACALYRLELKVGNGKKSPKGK

Sequence	binding signal (GST-ANAC092(1-176))	binding signal (GST-NTL6(1-168))	binding signal (GST-ANAC019 NAC domain)	binding signal (GST-ANAC055(1-171))	binding signal (GST-ATAF1 NAC domain)	binding signal [1]	binding signal (GST-NAP(1-166))	binding signal (GST-NST2(1-184))	binding signal (GST-NTL8 NAC domain)	binding signal (GST-SND1(1-203))	binding signal (GST-VND3 NAC domain)	binding signal (GST-VND7 NAC domain)	binding signal [2]
CAGGGTCA	-0.0799 E-score	-0.125 E-score	-0.129 E-score	-0.182 E-score	-0.164 E-score	-0.0728 E-score	-0.0764 E-score	-0.186 E-score	0.0102 E-score	-0.00298 E-score	-0.221 E-score	-0.228 E-score	0.00269 E-score
CGGGGTCA	-0.0783 E-score	-0.0423 E-score	0.00449 E-score	-0.223 E-score	-0.158 E-score	-0.0595 E-score	-0.1 E-score	-0.0117 E-score	0.107 E-score	-0.0173 E-score	-0.269 E-score	-0.185 E-score	0.0444 E-score
ACGGTCAA	-0.00836 E-score	-0.124 E-score	-0.0598 E-score	-0.0757 E-score	-0.173 E-score		0.00494 E-score	-0.0941 E-score	-0.0031 E-score	-0.0503 E-score	-0.165 E-score	-0.148 E-score	-0.129 E-score
CCTTTGAC	0.0178 E-score	-0.0426 E-score	-0.0303 E-score	-0.0261 E-score	-0.0469 E-score	-0.0184 E-score	-0.0634 E-score	-0.00645 E-score	0.0589 E-score	0.101 E-score	-0.0838 E-score	0.0281 E-score	-0.0269 E-score
ACGACCAA	-0.0341 E-score	0.0375 E-score	0.00507 E-score	-0.0971 E-score	-0.0378 E-score	-0.00456 E-score		-0.0127 E-score	-0.0207 E-score	0.00585 E-score	-0.102 E-score	-0.0434 E-score	0.0926 E-score
CGTTGACC	0.00874 E-score	-0.112 E-score	0.0797 E-score	0.0286 E-score	-0.0667 E-score	0.0428 E-score		-0.081 E-score		0.0105 E-score	-0.0758 E-score	0.0428 E-score	0.0277 E-score
ACAGGTCA	-0.14 E-score	-0.0946 E-score	-0.0239 E-score	-0.0119 E-score	-0.0995 E-score	-0.182 E-score	0.00402 E-score	0.0316 E-score	-0.221 E-score	-0.147 E-score	-0.0421 E-score	-0.0898 E-score	-0.0863 E-score
CAACGACC	-0.0132 E-score	-0.0299 E-score	0.034 E-score	-0.0128 E-score	-0.13 E-score	-0.0486 E-score	-0.0508 E-score	-0.0123 E-score	-0.0472 E-score	-0.117 E-score	-0.0762 E-score	-0.0749 E-score	0.00335 E-score
GCCGGTCA	-0.158 E-score	-0.0767 E-score	-0.0666 E-score	-0.245 E-score	-0.156 E-score	-0.163 E-score	-0.166 E-score	-0.154 E-score	-0.143 E-score	-0.0859 E-score	-0.235 E-score	-0.181 E-score	-0.0458 E-score
ACATTGAC	-0.0584 E-score	-0.0795 E-score	-0.0611 E-score	-0.0364 E-score	-0.00823 E-score	0.026 E-score		-0.0858 E-score	-0.101 E-score	-0.151 E-score	-0.0458 E-score	-0.0594 E-score	-0.054 E-score
GGTCAATA	-0.104 E-score	0.0146 E-score	-0.0599 E-score	-0.0117 E-score	-0.1 E-score			-0.114 E-score	-0.0103 E-score	-0.0367 E-score	-0.0495 E-score	-0.00593 E-score	0.0933 E-score
CGGTCAAA	0.00646 E-score	-0.0801 E-score	-0.0604 E-score	-0.0579 E-score	-0.0821 E-score	-0.0279 E-score	-0.0233 E-score		0.0552 E-score	0.0459 E-score	-0.0686 E-score	-0.0841 E-score	0.0608 E-score
CGGGTCAA	-0.0873 E-score	-0.192 E-score	-0.0632 E-score	-0.0804 E-score	-0.0497 E-score	-0.186 E-score	-0.104 E-score	0.0301 E-score	-0.207 E-score	-0.0733 E-score	-0.298 E-score	-0.154 E-score	0.0872 E-score
